# Results from publication PMC7451430.
# T1: EspB protein of Mycobacterium tuberculosis, full length (1-460) (Mycobacterium tuberculosis), P9WJD9
# T1 chain: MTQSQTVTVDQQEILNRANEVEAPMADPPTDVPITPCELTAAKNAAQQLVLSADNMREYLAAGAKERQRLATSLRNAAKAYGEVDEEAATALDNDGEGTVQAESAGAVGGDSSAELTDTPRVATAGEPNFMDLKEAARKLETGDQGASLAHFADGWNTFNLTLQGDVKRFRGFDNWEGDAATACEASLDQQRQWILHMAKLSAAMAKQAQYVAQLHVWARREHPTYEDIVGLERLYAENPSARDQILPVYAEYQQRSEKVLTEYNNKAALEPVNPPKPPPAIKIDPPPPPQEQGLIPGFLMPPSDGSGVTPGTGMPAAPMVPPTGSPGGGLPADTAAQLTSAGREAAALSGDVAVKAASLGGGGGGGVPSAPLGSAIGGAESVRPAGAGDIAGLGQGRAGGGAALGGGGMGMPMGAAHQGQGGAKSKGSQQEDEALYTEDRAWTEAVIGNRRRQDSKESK
# Target: T1, EspB protein of Mycobacterium …
# Test: cryo-EM structure
# Conditions: remark: other sources report otherwise
binder,measurement,value
"EspB protein of Mycobacterium tuberculosis, full length (1-460), P9WJD9 1-460 (natural protein) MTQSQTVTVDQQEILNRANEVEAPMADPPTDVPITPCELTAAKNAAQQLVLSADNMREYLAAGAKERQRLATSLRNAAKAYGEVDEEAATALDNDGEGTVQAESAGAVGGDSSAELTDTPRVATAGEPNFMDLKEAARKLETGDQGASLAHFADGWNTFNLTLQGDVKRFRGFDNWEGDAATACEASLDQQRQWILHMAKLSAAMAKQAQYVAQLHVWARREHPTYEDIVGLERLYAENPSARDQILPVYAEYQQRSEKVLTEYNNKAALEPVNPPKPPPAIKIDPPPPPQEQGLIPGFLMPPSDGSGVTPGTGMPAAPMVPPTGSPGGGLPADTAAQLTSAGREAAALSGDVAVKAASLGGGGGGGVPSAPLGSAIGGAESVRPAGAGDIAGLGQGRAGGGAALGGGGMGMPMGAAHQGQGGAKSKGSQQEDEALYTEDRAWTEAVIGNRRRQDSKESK",stoichiometry N,7
